Over roughly 33,000 sequences, “E-score (-0.5 to 0.5)” has its median near -0.021; the highest 2% begin near 0.32. The list shows a part of the results.
Molecular target: T1, Zap1 (UniProt P47043)
T1 sequence: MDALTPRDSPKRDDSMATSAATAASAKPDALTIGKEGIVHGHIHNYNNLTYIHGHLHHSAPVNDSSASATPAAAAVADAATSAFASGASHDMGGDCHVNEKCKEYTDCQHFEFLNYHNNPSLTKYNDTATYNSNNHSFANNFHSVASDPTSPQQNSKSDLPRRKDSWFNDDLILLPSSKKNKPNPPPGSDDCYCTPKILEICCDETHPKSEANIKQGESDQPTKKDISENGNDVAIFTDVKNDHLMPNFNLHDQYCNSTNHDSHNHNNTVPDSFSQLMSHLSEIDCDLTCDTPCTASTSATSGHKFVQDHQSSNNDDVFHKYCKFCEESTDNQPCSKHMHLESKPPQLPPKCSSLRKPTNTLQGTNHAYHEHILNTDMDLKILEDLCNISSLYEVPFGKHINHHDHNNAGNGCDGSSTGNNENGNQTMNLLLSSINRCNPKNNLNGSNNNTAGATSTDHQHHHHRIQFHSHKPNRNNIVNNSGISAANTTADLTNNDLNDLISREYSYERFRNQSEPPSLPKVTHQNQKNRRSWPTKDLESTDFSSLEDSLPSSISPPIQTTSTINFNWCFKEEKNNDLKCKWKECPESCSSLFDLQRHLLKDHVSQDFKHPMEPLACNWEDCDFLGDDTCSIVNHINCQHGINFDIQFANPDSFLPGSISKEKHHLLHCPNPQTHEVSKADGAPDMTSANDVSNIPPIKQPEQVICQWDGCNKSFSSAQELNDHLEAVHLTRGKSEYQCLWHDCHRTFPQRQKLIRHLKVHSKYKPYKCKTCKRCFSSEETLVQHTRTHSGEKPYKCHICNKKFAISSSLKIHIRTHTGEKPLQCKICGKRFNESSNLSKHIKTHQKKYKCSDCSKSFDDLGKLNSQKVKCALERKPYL
Assay: PBM E-score (8-mer binding enrichment) (E-score (-0.5 to 0.5)); higher = stronger / more preferred TF binding; most listed sequences are background and not binding sites
Conditions: protein concentration: 200 nM; construct: GST-full length
Method in brief: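 Each ungapped eight-base word and its reverse complement, pooled, received an E-score from the Universal PBM Analysis Suite. Underlying scans, normalised with masliner, recorded fluorescent anti-GST bound to GST-tagged yeast transcription factors. These were applied at about 100-200 nM to universal all-10-mer Agilent arrays double-stranded by primer extension.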

| Sequence | PBM E-score |
| --- | --- |
| ACTTCCTG | -0.00882 |
| CGATGCAG | -0.138 |
| GAATCAAA | 0.0114 |
| ATACTTAC | 0.133 |
| AAGAAGAA | -0.00276 |
| GCGATATA | -0.0223 |
| ATGTCGCA | -0.0839 |
| CAGAGGGA | -0.236 |
| AGTCGTTG | -0.159 |
| ATACGCGC | -0.0945 |
| CGGAACAC | 0.0931 |
| CCTACCGC | 0.148 |
| AGGTGTTC | 0.0381 |
| CAGGGGGG | -0.22 |
| AGCTATTG | 0.0683 |
| TCTTACCA | 0.0272 |
| TGCATTAA | 0.0493 |
| AGGGACGA | -0.117 |
| CAAGTAGA | -0.123 |
| CCGGCAAC | -0.039 |
| CTAGGAAA | -0.0218 |
| CCGTCCCG | -0.21 |

| Sequence | PBM E-score |
| --- | --- |
| ATGACTGG | -0.2 |
| GAGCTATC | -0.0171 |
| CCTTATGC | 0.0959 |
| GCGGCGGA | -0.0684 |
| GTCCAGAA | -0.0234 |
| GAGATGGC | -0.0104 |
| GTCCCTGA | -0.0852 |
| AGGTGGGG | 0.25 |
| CGTCACCC | 0.2 |
| CATAGCGA | -0.0788 |
| CACTTTCG | -0.159 |
| CACAGTTC | -0.0558 |
| AAAATGGC | -0.0463 |
| AAAGTCCA | 0.123 |
| GAACGAAC | -0.0025 |
| AGCCTGGA | -0.188 |
| AGGGCTAG | -0.185 |
| ACTATCCT | -0.111 |
| AATCCCTA | 0.123 |
| CTCAACTA | 0.121 |
| AGACAGAC | 0.172 |
| AGGGTCAG | 0.24 |

| Sequence | PBM E-score |
| --- | --- |
| GTAGACTA | -0.102 |
| ATATAGAA | 0.0773 |
| AGTCGAGG | 0.0295 |
| TAATAGAA | 0.171 |
| CCTTGGGA | 0.173 |
| ACTTACCA | 0.0218 |
| ACCCCGAC | 0.163 |
| CGGGCTAA | -0.222 |
| CATAGTGG | -0.198 |
| AGAAGCAG | -0.0952 |
| AGCCGTGG | -0.0798 |
| CTCTGGTA | 0.225 |
| ACAAGGTG | 0.192 |
| GACGAGGA | -0.295 |
| TATCGCGA | 0.238 |
| ACCAACTG | -0.0627 |
| AGATCGTC | -0.184 |
| AGGCCGAA | -0.102 |
| GACATTAC | 0.0741 |
| GGCGATAA | 0.0372 |
| CACATCCC | -0.104 |
| ATGATGAA | 0.288 |

| Sequence | PBM E-score |
| --- | --- |
| ATTTAGCC | -0.0172 |
| CCATTTAC | 0.138 |
| ACCACTAT | 0.138 |
| AAAGAGGT | 0.307 |
| ACTGAGGA | -0.125 |
| AAGGGATT | -0.119 |
| ACCCAGCG | -0.00828 |
| CTTGCATA | 0.0374 |
| AGCAGATA | -0.17 |
| ATTTTGAA | 0.126 |
| GACTCAAC | -0.166 |
| ATTTACGG | 0.229 |
| GATACAAC | 0.182 |
| TGCATGAA | 0.009 |
| CCACTAAC | 0.14 |
| CACCGTCG | -0.122 |
| GATAGAGC | -0.0954 |
| ACTTTACG | -0.14 |
| AAAGTTCA | -0.0948 |
| TGCCAAAA | 0.125 |
